# According to PubChem BioAssay AID2451 (National Center for Advancing Translational Sciences (NCATS), 2010):
# The campaign covered roughly 290,000 compounds. About 2,100 (0.72%) were called active. Inconclusive results, whose numbers are uncertain, are shown with a selection of clear calls. The call rests on the fitted dose curve; in most records, active means well fitted inhibition curve with a large enough effect; inconclusive means small, poorly fitted or top-dose-only effect, or effect the other way; inactive means flat fitted curve, though single readings scatter. Where the call is inconclusive, the potency comes from a doubtful curve fit.
# Target: Fructose-bisphosphate aldolase (Giardia intestinalis (strain ATCC 50803 / WB clone C6)) (UniProt A8B2U2)
# Assay: qHTS Assay for Inhibitors of Fructose-1,6-bisphosphate Aldolase from Giardia Lamblia; further: nearly all actives have a fitted effect of over 55% in size
# Details: purified Giardia FBPA; series mostly up to 59.6 µM
# Method in brief: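 Giardia FBPA (40 nM reagent) was preincubated 10 min at RT with compound (up to 57.5 uM final), then substrate plus GAPDH/TPI/NAD/arsenate coupling system with diaphorase/resazurin was added; resorufin fluorescence (525/598 nm) was read after 20 min.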
# Potency means the concentration at half of the fitted maximal effect; tags describe the fitted curve by direction and shape.
# Sequence of UniProt A8B2U2 (A8B2U2 whole entry, looked up): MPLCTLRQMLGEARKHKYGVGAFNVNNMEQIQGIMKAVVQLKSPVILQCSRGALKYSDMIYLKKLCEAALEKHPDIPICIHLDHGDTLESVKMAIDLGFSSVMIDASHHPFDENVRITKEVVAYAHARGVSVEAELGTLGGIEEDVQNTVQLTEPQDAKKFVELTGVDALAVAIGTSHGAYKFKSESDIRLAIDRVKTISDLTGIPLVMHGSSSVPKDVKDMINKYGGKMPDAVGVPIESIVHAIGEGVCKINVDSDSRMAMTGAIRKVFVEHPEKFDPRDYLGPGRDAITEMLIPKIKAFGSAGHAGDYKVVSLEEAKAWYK
row,Structure (SMILES),Potency
1,O=C(CSc1cccc[n+]1[O-])Nc1cc(S(=O)(=O)N2CCOCC2)ccc1N1CCOCC1,inactive
2,CO[C@H]1[C@@H](O)[C@@H](C)O[C@H](O[C@H]2[C@H](Oc3cccc4c(O)c5c(=O)oc6ccc(C)c7c(=O)oc(c34)c5c67)O[C@H](C)[C@H](O)[C@@H]2O)[C@@H]1O,"inconclusive: 7.06 µM [inhibitor, partial curve]"
3,COc1cccc(-c2nnc(NC(=O)c3ccccc3Br)o2)c1,"inconclusive: 17.7 µM [inhibitor, single point]"
4,c1coc(CNc2nc3nonc3nc2NCc2ccco2)c1,"inconclusive: 17.7 µM [inhibitor, single point]"
5,Cn1nnnc1SCC1=C(C(=O)O)N2C(=O)C(NC(=O)Cn3nc(C(F)F)cc3C3CC3)C2SC1 (stereo unspecified),"inconclusive: 17.7 µM [inhibitor, partial curve]"
6,O=C(COc1ccccc1C(=O)c1cnn(-c2ccccc2)c1)Nc1ccc2ccccc2c1,inactive
7,C=CCN(c1ccc(Cl)cc1)S(=O)(=O)c1cccc(C(=O)O)c1,"inconclusive: 17.7 µM [activator, single point]"
8,Cn1ncc(Br)c1C(=O)N/N=C/c1cccc(OC2CSC2)c1,"inconclusive: 0.998 µM [inhibitor, full curve]"
9,C[n+]1ccccc1/C=C/c1c(F)cccc1F,"inconclusive: 25.1 µM [inhibitor, single point]"
10,O=C1c2c(O)ccc(O)c2C(=O)c2c(NCCNCCO)ccc(NCCNCCO)c21,"inconclusive: 17.7 µM [inhibitor, single point]"
11,CCc1nc(SCC(=O)c2ccc(C)c(C)c2)n[nH]1,"inconclusive: 15.8 µM [inhibitor, single point]"
12,CCC(C)[C@H](NC(=O)[C@@H]1Cc2ccccc2CN1)C(=O)NCc1ccc(OC)cc1 (stereo partly specified),active: 14.1 µM
13,Cc1ccc(C(C)C)cc1OCCn1cncn1,active: 22.4 µM
14,O=c1[nH]c2cc3c(cc2cc1CN(Cc1cccnc1)Cc1nnnn1Cc1ccco1)OCCO3,"inconclusive: 25.1 µM [inhibitor, single point]"
15,CCc1nnc(NC(=O)CCC(=O)Nc2ccccc2)s1,inactive
16,Cc1c(N/C=C/C(=O)c2cccs2)c(=O)n(-c2ccccc2)n1C,inactive
17,CN(C)C1C(=O)C(C(N)=O)C(=O)C2(O)C(=O)C3C(=O)c4c(O)ccc(Cl)c4C(O)C3CC12 (stereo unspecified),"inconclusive: 14.1 µM [inhibitor, partial curve]"
18,Cc1c(O)ccc2c(O)c(NC(=O)c3ccc4c(c3)CCC(C)(C)O4)c(=O)oc12,"inconclusive: 15.8 µM [activator, single point]"
19,C/C(=N/NC(=O)c1ccccn1)c1ccc(O)cc1,"inconclusive: 17.7 µM [inhibitor, single point]"
20,O=C(NCc1ccc2c(c1)OCO2)c1nc(S(=O)(=O)Cc2ccccc2F)ncc1Cl,inactive
21,CCOC(=O)c1c(C)[nH]c(O)c1C=Nc1ccc(Cl)cc1,"inconclusive: 35.4 µM [inhibitor, single point]"
22,CCOC(=O)C1CCN(Cc2cn[nH]c2-c2ccc(C)cc2)CC1,"inconclusive: 31.5 µM [inhibitor, single point]"
23,c1ccc2[nH]c(NCCCc3cnc[nH]3)nc2c1,"inconclusive: 5.61 µM [inhibitor, full curve]"
24,CC(=O)[C@H]1CC[C@H]2[C@@H]3C=CC4=CC(=O)CC[C@@]4(C)[C@H]3CC[C@]12C,inactive
25,O=C(Nc1nnc(S(=O)(=O)N2CCCC2)s1)c1ccccc1Br,"inconclusive: 35.5 µM [inhibitor, single point]"
26,CC(=O)C1=C(O)C(=O)N(CCCN2CCOCC2)C1c1ccccc1[N+](=O)[O-] (stereo unspecified),"inconclusive: 12.6 µM [inhibitor, partial curve]"

row,Structure (SMILES),Potency
1,CCCC(=O)NCCCc1nc2ccccc2n1CCC,"inconclusive: 5 µM [activator, full curve]"
2,COc1ccccc1C(=O)Oc1ccccc1C(=O)Nc1ccccc1,inactive
3,O=S(=O)(Nc1cccc2cccnc12)c1ccccc1,active: 17.7 µM
4,COc1ccccc1OCc1nn[nH]n1,active: 31.6 µM
5,O=C(c1cc(-c2ccc(Cl)cc2)n(-c2cc(Cl)ccc2Cl)n1)N1CCOCC1,"inconclusive: 14.1 µM [inhibitor, partial curve]"
6,Cc1cnc(CNc2ncnc3ccc(-c4c(C)noc4C)cc23)cn1,inactive
7,O=C(Nc1ccccc1N1CCN(C(=O)c2ccc(Cl)cc2)CC1)c1ccc2c(c1)OCO2,inactive
8,COCCNc1ncnc2ccc(-c3ccccc3OC)cc12,inactive
9,COc1ccc2[nH]c(=O)c(CNc3cc(C)ccc3C)cc2c1,"inconclusive: 15.8 µM [inhibitor, partial curve]"
10,CN[C@@H](C)[C@H](O)c1ccccc1,"inconclusive: 44.6 µM [inhibitor, single point]"
11,Cc1ccccc1NS(=O)(=O)c1cc(S(C)(=O)=O)ccc1C,inactive
12,N#CC1=C(N)C(C#N)(C#N)[C@H](c2ccoc2)[C@H]2CN(Cc3ccccc3)CC=C12,"inconclusive: 11.2 µM [inhibitor, partial curve]"
13,COc1cccc2c1Oc1cc([N+](=O)[O-])cc(N(C)C(C)=O)c1C=C2,inactive
14,O=C(NCc1cccs1)C(=O)c1c[nH]c2ccccc12,inactive
15,c1cc2c(cc1NC1CCCCCC1)OCO2,active: 25.1 µM
16,O=C(O)c1ccc(S(=O)(=O)c2ccc3c(c2)C(=O)N(CC2CCCO2)C3=O)cc1 (stereo unspecified),"inconclusive: 17.7 µM [activator, partial curve]"
17,CCCC(=O)NC(c1ccc(N(C)C)cc1)c1ccc2cccnc2c1O (stereo unspecified),"inconclusive: 10 µM [activator, partial curve]"
18,Cc1c(Cc2ccccc2)c(NCCCO)n2c(nc3ccccc32)c1C#N,inactive
19,CCOC(=O)c1c(N)nn(C(=O)C(C)(C)C)c1-c1ccccc1,"inconclusive: 4.46 µM [inhibitor, single point]"
20,CC(=O)C1=C(O)C(=O)N(c2ccccn2)C1c1ccc(Cl)cc1 (stereo unspecified),inactive
21,N#Cc1c(C#N)c(O)c2ccccc2c1O,active: 19.9 µM
22,COCn1c(-c2ccccc2)nc2ccccc21,inactive
23,CNc1nc2[nH]c(=O)c3c(c2s1)OC(N)=C(C#N)C3c1cccc(F)c1 (stereo unspecified),"inconclusive: 22.3 µM [inhibitor, single point]"
24,Cc1cc(-c2cc(-c3ccc(Cl)cc3)nc(N)c2C#N)co1,"inconclusive: 14.1 µM [inhibitor, partial curve]"
25,Cc1c(C#N)c(NC(=O)CCl)n(Cc2ccc(F)cc2)c1C,"inconclusive: 35.4 µM [inhibitor, single point]"
26,CCn1c(CNC(=O)c2ccccc2F)nnc1SCC(=O)Nc1nncs1,"inconclusive: 20 µM [inhibitor, partial curve]"

row,Structure (SMILES),Potency
1,Cc1cc(S(=O)(=O)NCc2ccc(S(N)(=O)=O)cc2)c(C)s1,inactive
2,CC(=O)c1cccc(NC(=O)c2ccc(OC3CSC3)cc2)c1,inactive
3,Cc1cc2ccc3ccccc3c2cc1CN(C)C,inactive
4,Cc1noc(C)c1C(=O)N1CCC2(CC1)CN(c1ncccn1)C2,inactive
5,Oc1ccc(-c2[nH]ncc2-c2cnn(-c3ccccc3)c2)c(O)c1,inactive
6,CC1CCCN(S(=O)(=O)c2ccc(C(=O)Nc3nnc(C4CC4)o3)cc2)C1 (stereo unspecified),"inconclusive: 31.6 µM [inhibitor, single point]"
7,COc1cccc2c(Nc3ccccc3C)cc(C)nc12,"inconclusive: 28.2 µM [inhibitor, single point]"
8,Fc1ccccc1OCCCN1CCOCC1,"inconclusive: 20 µM [inhibitor, partial curve]"
9,Nc1cnccc1C(=O)O,active: 12.6 µM
10,Cc1cc(=O)[nH]c(N/N=C/c2c[nH]c3ccccc23)n1,"inconclusive: 17.7 µM [inhibitor, single point]"
11,Cc1ccccc1OCC(=O)N/N=C/C=C/c1ccccc1,inactive
12,Cc1ccccc1N1CCN(Cc2ccc(Br)o2)CC1,"inconclusive: 28.2 µM [inhibitor, partial curve]"
13,COc1ccccc1CNc1ncnc2ccc(-c3ccc(N(C)C)cc3)cc12,"inconclusive: 14.1 µM [inhibitor, partial curve]"
14,O=C1CCCC/C1=C/Nc1ccc(S(=O)(=O)Nc2ncccn2)cc1,"inconclusive: 19.9 µM [inhibitor, partial curve]"
15,CC1=C(n2nnc3ccccc32)C(c2ccccc2)C(C#N)=C(N)O1 (stereo unspecified),"inconclusive: 7.92 µM [inhibitor, partial curve]"
16,O=C(c1ccncc1)N1N=C(c2ccc(Cl)cc2)CC1c1ccccc1O (stereo unspecified),"inconclusive: 39.8 µM [inhibitor, single point]"
17,CC(C)(C)c1nnc(NC(=O)c2ccc(Cl)nc2)s1,active: 5 µM
18,COc1cc(CN(CCN(C)C)Cc2ccccc2)ccc1OCc1ccccc1,"inconclusive: 31.6 µM [inhibitor, partial curve]"
19,Clc1ccc(C2=NNC(=NCC3CCCO3)SC2)cc1 (stereo unspecified),inactive
20,CCOc1ccccc1Nc1ccc(C(=O)O)cc1[N+](=O)[O-],"inconclusive: 15.8 µM [activator, single point]"
21,CC1CN(CCCSc2ccc(Cl)cc2)CC(C)O1 (stereo unspecified),"inconclusive: 17.7 µM [inhibitor, partial curve]"
22,CCn1cc(CN2CCCC(CO)(Cc3ccc(F)cc3)C2)c2ccccc21 (stereo unspecified),inactive
23,CCCCC(=O)NC(=S)Nc1cccc(C(=O)O)c1,inactive
24,CC1CC(C)CN(C(=O)C(C)N(C)CC(=O)Nc2ccc(Cl)cc2)C1 (stereo unspecified),active: 19.9 µM
